# PubChem BioAssay (NCATS)
# This list was built around the results that the source calls inconclusive (neither active nor inactive); the mix of calls is not that of the screen. For some assays here: A potency beside an inconclusive call is a rough fit, not a confirmed value. The source made the active and inactive calls. Unless noted, calls come from the whole dose curve; as a rule, active = well fitted curve in the direction sought with a large enough effect; inconclusive = small, poorly fitted or top-dose-only effect, or another doubt; inactive = no such curve, though single readings can be large; an effect the other way counts as inactive or inconclusive.
# Experiments:
# [1] = Cell Viability - BJ (AID 421; calls by dose curve;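 note: potency is the fitted concentration of half-maximal effect; cells exposed to compound for 40 hours at 37 °C before readout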); settings: BJ fibroblast viability, qHTS
# Procedure, shortened: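 Cytotoxicity in human BJ foreskin fibroblasts is scored as loss of cellular ATP after a 40-hour exposure, measured by luciferase luminescence. Controls are DMSO and 100 uM tamoxifen.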
# [2] = Cell Viability - Jurkat (AID 426;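 active = dose-dependent loss of cell ATP signal giving a full or clear fitted curve, ranked by lower potency value; inconclusive = weak partial curve or response only at the top dose; inactive = no loss of viability signal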;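 note: potency is the fitted concentration of half-maximal effect; cells exposed to compound for 40 hours at 37 °C before ATP read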); settings: qHTS
# Procedure, shortened: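 Cells of the human T-cell leukemia line Jurkat (E6-1) are seeded at 5000 per well, treated with compound across a concentration range for 40 hours at 37 °C, then lysed with CellTiter-Glo; luminescence reports ATP.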
# [3] = Cell Viability - HepG2 (AID 433; calls by dose curve;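 note: potency is the fitted concentration of half-maximal effect; potency for ATP loss meaning cytotoxicity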); settings: qHTS
# Procedure, shortened: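 Cytotoxicity read as ATP loss (CellTiter-Glo luminescence) after 40 hr compound exposure of HepG2, 1500 cells/well, 37 °C. AC50 by Hill equation; 0% set by DMSO, 100% inhibition by 100 uM tamoxifen.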
# [4] = Cell Viability - N2a (AID 540); settings: N2a mouse neuroblastoma cell viability; activity change, negative = cytotoxicity: at 92.2 µM (top of the series);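 note: potency is the fitted concentration of half-maximal effect; cells exposed to compound for 40 h at 37 °C; nearly all actives have a fitted effect of over 45% in size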
# Procedure, shortened: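 Cytotoxicity was scored as loss of cellular ATP in N2a cells, a mouse neuroblastoma line. Compounds are applied in a qHTS concentration series for 40 hr at 37 °C.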
# [5] = Cell Viability - NIH 3T3 (AID 541); settings: NIH 3T3 cell viability, qHTS; activity change, negative = cytotoxicity: at 92.2 µM (top of the series);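 note: plate controls were DMSO alone for no effect and tamoxifen positive control for full effect; nearly all actives have a fitted effect of over 25% in size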
# Procedure, shortened: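 Cells seeded at 1000/well, rested 5 hr at 37 °C, then dosed and incubated 40 hr at 37 °C. CellTiter-Glo added, 20 min room temperature, luminescence read. AC50 by Hill fit.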
# [6] = Cell Viability - HUV-EC-C (AID 542); settings: HUV-EC-C endothelial cell viability, qHTS; series mostly up to 92.2 µM; note: potency is the fitted concentration of half-maximal effect; nearly all actives have a fitted effect of over 35% in size
# Procedure, shortened: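 Cells were seeded at 1000 per well and incubated 5 hr at 37 °C before compound addition. After 40 hr at 37 °C, CellTiter-Glo reagent was added for 20 min and luminescence read. AC50 values came from Hill-equation modelling.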
# [7] = Cell Viability - H-4-II-E (AID 543); settings: H-4-II-E rat hepatoma viability; series mostly up to 92.2 µM; note: potency is the fitted concentration of half-maximal effect; nearly all actives have a fitted effect of over 35% in size
# Procedure, shortened: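 Cells seeded at 1500 per well and rested 5 hr; compounds added; 40 hr incubation at 37 °C; CellTiter-Glo added, 20 min at room temperature; luminescence read. Hill-equation fits gave AC50.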
# [8] = Cell Viability - Renal Proximal Tubule (AID 545); settings: renal proximal tubule cells viability, primary cells of rat origin; activity change, negative = cytotoxicity: at 91.7 µM (top of the series); note: potency is the fitted concentration of half-maximal effect; nearly all actives have a fitted effect of over 40% in size
# Procedure, shortened: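 Viability taken as intracellular ATP (CellTiter-Glo luminescence) after 40 hr, 37 °C compound treatment of primary proximal tubule cells from rat kidney, 1000 cells/well; Hill-equation fits of qHTS concentration-response data gave AC50.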
# [9] = Cellular Toxicity (caspase-3) Jurkat (AID 655); settings: Jurkat caspase-3 activation, luminescence; caspase-3 activation: at 92.2 µM (top of the series), DMSO = 0%, tamoxifen = 100%;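 note: cells exposed to compound for 16 h at 37 °C before reading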
# Procedure, shortened: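 Luminescent Caspase-Glo 3/7 read-out (20 min, room temperature) after 16 h compound treatment at 37 C of 5000 Jurkat cells per well. AC50 derived by Hill-equation fitting, scaled between DMSO basal and 100 uM tamoxifen stimulation.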
# [10] = Cellular Toxicity (caspase-3) HUV-EC-C (AID 656); settings: HUV-EC-C cells, caspase-3 activation (apoptosis); series mostly up to 92.2 µM; note: potency is the fitted concentration of half-maximal effect
# Procedure, shortened: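 Luminescent Caspase-Glo 3/7 readout after 16 h, 37 °C compound exposure of HUV-EC-C endothelial cells, 1000 per well, complete medium. AC50 derived by Hill fitting, with DMSO as baseline and 100 uM tamoxifen as full activation.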
# [11] = Cellular Toxicity (caspase-3) SHSY5Y (AID 657); settings: SH-SY5Y caspase-3 activation; series mostly up to 91.7 µM; note: potency is the fitted concentration of half-maximal effect
# Procedure, shortened: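 Luminescent Caspase-Glo 3/7 read-out, 1 hr room temperature, follows 16 hours of compound treatment of SH-SY5Y cells at 37 °C. Normalization: DMSO basal, 10 uM staurosporine as 100%; AC50 values from Hill-equation concentration-response fits.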
# [12] = Cellular Toxicity (caspase-3) Mesangial (AID 660); settings: mesangial cells, normalized: DMSO 0%, 100 µM tamoxifen 100%; at 91.7 µM (top of the series);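 note: combined caspase 3 and 7 activity read by Caspase-Glo luminescence; cells exposed to compound for 16 h before the caspase read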
# Procedure, shortened: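 Seed cells derived from normal human renal glomeruli, incubate 5 h, add compounds across concentrations and incubate 16 h at 37 °C. Caspase 3/7 activation is then quantified by luciferase light, with AC50 derived by Hill modeling.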
# [13] = Cellular Toxicity (caspase-3) SK-N-SH (AID 661); settings: SK-N-SH caspase-3 activation, qHTS; caspase-3 activation: at 91.7 µM (top of the series), DMSO as zero, staurosporine as full
# Procedure, shortened: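 Cells were seeded and incubated 5 hr at 37 °C, dosed with compound over a concentration range for 16 hr, then given Caspase-Glo 3/7 reagent for 1 hr at room temperature before luminescence reading.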
# [14] = Cellular Toxicity (caspase-3) H-4-II-E (AID 663); settings: H-4-II-E rat hepatoma; Potency: caspase-3 activation; caspase-3 activation: at 92.2 µM (top of the series), scaled: DMSO 0%, 100 µM tamoxifen 100%; note: potency is the fitted concentration of half-maximal effect
# Procedure, shortened: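 Caspase 3/7 activation measured in H-4-II-E cells in complete culture medium after 16 hr treatment at 37 °C, using luciferase-coupled substrate readout; AC50 values come from Hill-equation fits of normalized concentration-response data.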
# [15] = Cellular Toxicity (caspase-3) Hek293 (AID 664); settings: HEK293 caspase-3 activation, DMSO = 0%, 100 µM tamoxifen = 100%; at 92.2 µM (top of the series);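 note: cells exposed to compound for 16 h at 37 °C before readout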
# Procedure, shortened: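 qHTS, HEK293 (human embryonic kidney), 16 h cpd exposure in complete medium. Caspase-3/7 activation = luminescence increase; normalized to DMSO/100 uM tamoxifen; Hill-fit AC50.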
# [16] = Cellular Toxicity (caspase-3) N2a (AID 665); settings: N2a cells, luminescence; Potency: caspase-3 activation; caspase-3 activation: at 92.2 µM (top of the series), normalized: DMSO 0%, 10 µM staurosporine 100%;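 note: compound exposure lasted 16 h at 37 °C before readout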
# Procedure, shortened: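 Caspase-3/7 activation, measured as increased luminescence from aminoluciferin release, is quantified in mouse N2a cells exposed to compounds for 16 h. Values are normalized to DMSO and 10 uM staurosporine, with AC50 derived by Hill modelling.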
# [17] = Cellular Toxicity (caspase-3) NIH 3T3 (AID 666); settings: NIH 3T3 caspase-3 activation, apoptosis/toxicity;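 note: potency is the fitted concentration of half-maximal effect; caspase signal read after 16 h compound exposure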
# Procedure, shortened: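 Cells were plated at 1000 per well and incubated 5 hr at 37°C, then compound was added for 16 hr. Caspase-Glo 3/7 reagent followed for 20 min at room temperature before luminescence was read.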
# [18] = Cell Viability - LYMP2-001 (AID 921); settings: LYMP2-001 lymphoblastoid cell viability; series mostly up to 92.2 µM; note: potency is the fitted concentration of half-maximal effect; nearly all actives have a fitted effect of over 70% in size
# Procedure, shortened: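 Cellular ATP loss read by luciferase luminescence after 24 h compound exposure at 37 C in complete medium. LYMP2-001 lymphoblastoid cells, 2500/well; qHTS concentration-response data fitted with Hill equation for AC50.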
# [19] = MultiTox-Fluor Cytotoxicity Assay - LYMP1-001 - Dead Cells (AID 946); settings: LYMP1-001 lymphoblastoid cells, dead-cell protease fluorescence; cytotoxicity (dead cells): at 92.2 µM (top of the series); note: potency is the fitted concentration of half-maximal effect
# Procedure, shortened: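 Seed 2500 LYMP1-001 cells/well, incubate 5 hr at 37 C; add compound, 16 hr at 37 C; add MultiTox-Fluor reagent, 60 min RT; read dead-cell fluorescence Ex/Em=485/520. Normalize to DMSO and 15 uM tetraoctylammonium bromide.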
# [20] = MultiTox-Fluor Cytotoxicity Assay - LYMP1-001 - Live Cells (AID 947); settings: LYMP1-001 lymphoblastoid cells, live-cell protease fluorescence viability; series mostly up to 92.2 µM; note: potency is the fitted concentration of half-maximal effect
# [21] = Cell Viability - LYMP1-002 - Assay at 16 hr (AID 948); settings: LYMP1-002 lymphoblastoid cell viability; series mostly up to 92.2 µM; note: potency is the fitted concentration of half-maximal effect
# Procedure, shortened: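 ATP luminescence (CellTiter-Glo) was measured after 16 hr compound exposure at 37 C of 2500 lymphoblastoid LYMP1-002 cells per well. Concentration-response curves were fitted with the Hill equation to give AC50.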
# [22] = MultiTox-Fluor Cytotoxicity Assay - LYMP1-002 - Live Cells (AID 955); settings: LYMP1-002 lymphoblastoid live-cell protease fluorescence viability; series mostly up to 46.1 µM; note: potency is the fitted concentration of half-maximal effect
# Procedure, shortened: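 Cells were seeded at 2500 per well and incubated 5 hr. Compounds were then added for 16 hr at 37 C, followed by MultiTox-Fluor reagent for 60 min at room temperature and fluorescence reading of viable-cell protease signal.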
# [23] = MultiTox-Fluor Cytotoxicity Assay - LYMP1-002 - Dead Cells (AID 960); settings: LYMP1-002 lymphoblastoid cells, dead-cell protease fluorescence; cytotoxicity (dead cells): at 46.1 µM (top of the series); note: potency is the fitted concentration of half-maximal effect; nearly all actives have a fitted effect of over 60% in size
# Procedure, shortened: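 Cells were plated, rested 5 hr, then treated with compound dilution series for 16 hr at 37 C. After adding substrate reagent and 60 min at room temperature, dead-cell protease fluorescence gave concentration-response curves fitted by the Hill equation.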
# Tags give direction and shape of the fitted curve.
smiles,measurement,setting,value
CC1=C(/C=C/C(C)=C/C=C/C(C)=C/C=O)C(C)(C)CCC1,Potency,[1],active: 35.2 µM
same,Potency,[2],active: 21.5 µM
same,Potency,[3],inconclusive: 73.1 µM [single point]
same,Potency,[4],active: 31.6 µM
same,"activity change, negative = cytotoxicity",[5],inconclusive: -67.3%
same,Potency,[6],active: 31.6 µM
same,Potency,[7],active: 25.1 µM
same,Potency,[8],active: 15.8 µM
same,caspase-3 activation,[9],inconclusive: 30.9%
same,Potency,[10],active: 39.8 µM
same,Potency,[11],"inconclusive: 15.8 µM [rising, partial curve]"
same,caspase-3 activation,[12],inconclusive: 102%
same,caspase-3 activation,[13],inconclusive: 76.8%
same,Potency,[14],active: 31.6 µM
same,caspase-3 activation,[15],inconclusive: 36.4%
same,caspase-3 activation,[16],inconclusive: 43.8%
same,Potency,[17],"inconclusive: 79.4 µM [rising, single point]"
same,Potency,[18],active: 39.8 µM
same,Potency,[19],"inconclusive: 79.4 µM [cytotoxic, single point]"
same,Potency,[20],"inconclusive: 79.4 µM [cytotoxic, single point]"
same,Potency,[21],"inconclusive: 79.4 µM [cytotoxic, partial curve]"
same,Potency,[22],"inconclusive: 31.6 µM [cytotoxic, single point]"
same,Potency,[23],active: 31.6 µM
